Assay results as given in the supplement of paper PMC4604168 (melanoma cell lines).
Some of the results follow. Most values come without repeats; read them as rough.

What was measured:
Test in all cases: cell count relative to DMSO control; melanoma cells; higher = more viable cells
Conditions in all cases: library dose: low library concentration; 72 h
WM115 = test system: WM115
WM1716 = test system: WM1716
WM1745 = test system: WM1745
WM3526 = test system: WM3526
WM3619 = test system: WM3619
WM451Lu = test system: WM451Lu
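Further: cell number obtained by counting DAPI-stained nuclei in high-throughput microscope images with image analysis software, screen run in 1,536-well plates.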

Compound: CO[C@@H]1[C@H](N(C)C(=O)c2ccccc2)C[C@H]2O[C@]1(C)n1c3ccccc3c3c4c(c5c6ccccc6n2c5c31)C(=O)NC4 [Midostaurin] + COc1cc2c(Oc3ccc4[nH]c(C)cc4c3F)ncnc2cc1OCCCN1CCCC1 [cediranib] (first compound 0.08 µM, partner dose 0.4 µM)
- cell count (WM115): 88.3%
- cell count (WM1716): 90.4%
- cell count (WM1745): 84.3%
- cell count (WM3526): 103%
- cell count (WM3619): 107%
- cell count (WM451Lu): 102%

Compound: CO[C@@H]1[C@H](N(C)C(=O)c2ccccc2)C[C@H]2O[C@]1(C)n1c3ccccc3c3c4c(c5c6ccccc6n2c5c31)C(=O)NC4 [Midostaurin] + Oc1nc(-c2ccc(C(F)(F)F)cc2)nc2c1CSCC2 [XAV939] (first compound 0.08 µM, partner dose 2 µM)
- cell count (WM115): 65.6%
- cell count (WM1716): 48.6%
- cell count (WM1745): 61%
- cell count (WM3526): 97.6%
- cell count (WM3619): 89.8%
- cell count (WM451Lu): 93.8%

Compound: CO[C@@H]1[C@H](N(C)C(=O)c2ccccc2)C[C@H]2O[C@]1(C)n1c3ccccc3c3c4c(c5c6ccccc6n2c5c31)C(=O)NC4 [Midostaurin] + CCc1ccc(CCOc2ccc(CC3SC(=O)NC3=O)cc2)nc1 [pioglitazone] (first compound 0.08 µM, partner dose 2 µM)
- cell count (WM115): 79.8%
- cell count (WM1716): 77.2%
- cell count (WM1745): 72%
- cell count (WM3526): 99.7%
- cell count (WM3619): 108%
- cell count (WM451Lu): 89.6%

Compound: C=CCn1c(=O)c2cnc(Nc3ccc(N4CCN(C)CC4)cc3)nc2n1-c1cccc(C(C)(C)O)n1 + COc1ccc(COc2ccc(Cc3cnc(N)nc3N)cc2OC)cc1 [GW2580] (first compound 0.02 µM, partner dose 1 µM)
- cell count (WM115): 84.4%
- cell count (WM1716): 93.4%
- cell count (WM1745): 88.9%
- cell count (WM3526): 108%
- cell count (WM3619): 70.8%
- cell count (WM451Lu): 112%

Compound: CO[C@@H]1[C@H](N(C)C(=O)c2ccccc2)C[C@H]2O[C@]1(C)n1c3ccccc3c3c4c(c5c6ccccc6n2c5c31)C(=O)NC4 [Midostaurin] + Cn1cc(/C=C2\C(=O)Nc3cccnc32)c2ccccc21 [GW441756] (first compound 0.08 µM, partner dose 0.4 µM)
- cell count (WM115): 71.3%
- cell count (WM1716): 67.3%
- cell count (WM1745): 76.7%
- cell count (WM3526): 112%
- cell count (WM3619): 96.2%
- cell count (WM451Lu): 104%

Compound: CN(C)S(=O)(=O)c1ccc2c(c1)/C(=C/c1cc3c([nH]1)CCCC3)C(=O)N2 + c1cc(-c2cnn3cc(-c4ccc(OCCN5CCCCC5)cc4)cnc23)ccn1 [Dorsomorphin] (first compound 0.4 µM, partner dose 0.4 µM)
- cell count (WM115): 80.1%
- cell count (WM1716): 115%
- cell count (WM1745): 68.4%
- cell count (WM3526): 87.9%
- cell count (WM3619): 122%
- cell count (WM451Lu): 92.9%

Compound: C[C@]1(c2nc3c(C(N)=O)cccc3[nH]2)CCCN1 [Veliparib] + O=C(Nc1ccccc1)c1cc([N+](=O)[O-])ccc1Cl [GW9662] (first compound 1.4 µM, partner dose 2 µM)
- cell count (WM115): 91.3%
- cell count (WM1716): 77.1%
- cell count (WM1745): 79.7%
- cell count (WM3526): 89.3%
- cell count (WM3619): 81.6%
- cell count (WM451Lu): 111%

Compound: C[C@]1(c2nc3c(C(N)=O)cccc3[nH]2)CCCN1 [Veliparib] + C=CCn1c(=O)c2cnc(Nc3ccc(N4CCN(C)CC4)cc3)nc2n1-c1cccc(C(C)(C)O)n1 [MK1775] (first compound 1.4 µM, partner dose 0.02 µM)
- cell count (WM115): 74.1%
- cell count (WM1716): 66.5%
- cell count (WM1745): 75.9%
- cell count (WM3526): 103%
- cell count (WM3619): 64.5%
- cell count (WM451Lu): 93.9%

Compound: CN(C)S(=O)(=O)c1ccc2c(c1)/C(=C/c1cc3c([nH]1)CCCC3)C(=O)N2 + O=C1NC(=O)/C(=C/c2ccc(-c3ccc(F)cc3O)o2)S1 [AS252424] (first compound 0.4 µM, partner dose 1 µM)
- cell count (WM115): 76.7%
- cell count (WM1716): 109%
- cell count (WM1745): 82.4%
- cell count (WM3526): 102%
- cell count (WM3619): 92%
- cell count (WM451Lu): 101%

Compound: CN(C)S(=O)(=O)c1ccc2c(c1)/C(=C/c1cc3c([nH]1)CCCC3)C(=O)N2 + O=S(=O)(c1ccccc1)N(CC(F)(F)F)c1ccc(C(O)(C(F)(F)F)C(F)(F)F)cc1 [T0901317] (first compound 0.4 µM, partner dose 1.4 µM)
- cell count (WM115): 78.6%
- cell count (WM1716): 117%
- cell count (WM1745): 71.3%
- cell count (WM3526): 81.4%
- cell count (WM3619): 100%
- cell count (WM451Lu): 112%

Compound: NCC(=O)Nc1ccc(-n2nc(C(F)(F)F)cc2-c2ccc3c(ccc4ccccc43)c2)cc1 + CC(C)CCN1c2nc(Nc3cc(F)c(O)c(F)c3)ncc2N(C)C(=O)C1C [BID1870] (first compound 1 µM, partner dose 0.2 µM)
- cell count (WM115): 102%
- cell count (WM1716): 87.3%
- cell count (WM1745): 92.3%
- cell count (WM3526): 70.4%
- cell count (WM3619): 91.6%
- cell count (WM451Lu): 87%

Compound: Cc1nc(Nc2ncc(C(=O)Nc3c(C)cccc3Cl)s2)cc(N2CCN(CCO)CC2)n1 [dasatanib] + COc1cc2c(Oc3ccc4[nH]c(C)cc4c3F)ncnc2cc1OCCCN1CCCC1 [cediranib] (first compound 0.004 µM, partner dose 0.4 µM)
- cell count (WM115): 66.7%
- cell count (WM1716): 57.2%
- cell count (WM1745): 70.6%
- cell count (WM3526): 79.4%
- cell count (WM3619): 93.6%
- cell count (WM451Lu): 61.3%

Compound: OCCn1cc(-c2cnc3nnn(Cc4ccc5ncccc5c4)c3n2)cn1 + COc1cc2c(Oc3ccc4[nH]c(C)cc4c3F)ncnc2cc1OCCCN1CCCC1 [cediranib] (first compound 1 µM, partner dose 0.4 µM)
- cell count (WM115): 104%
- cell count (WM1716): 85.7%
- cell count (WM1745): 85.1%
- cell count (WM3526): 78.4%
- cell count (WM3619): 97.3%
- cell count (WM451Lu): 92.7%

Compound: CN(C)S(=O)(=O)c1ccc2c(c1)/C(=C/c1cc3c([nH]1)CCCC3)C(=O)N2 + CN(NC(=O)CC(=O)NN(C)C(=S)c1ccccc1)C(=S)c1ccccc1 [STA4783] (first compound 0.4 µM, partner dose 0.006 µM)
- cell count (WM115): 65.4%
- cell count (WM1716): 74.5%
- cell count (WM1745): 26.2%
- cell count (WM3526): 80.4%
- cell count (WM3619): 64%
- cell count (WM451Lu): 92.2%

Compound: NC(=O)Nc1cc(-c2cccc(F)c2)sc1C(=O)N[C@H]1CCCNC1 + N#Cc1c(O)c2c(-c3ccc(-c4ccccc4O)cc3)csc2[nH]c1=O [A769662] (first compound 0.02 µM, partner dose 2 µM)
- cell count (WM115): 86%
- cell count (WM1716): 90.3%
- cell count (WM1745): 85.5%
- cell count (WM3526): 81.3%
- cell count (WM3619): 50.8%
- cell count (WM451Lu): 91%

Compound: OCCn1cc(-c2cnc3nnn(Cc4ccc5ncccc5c4)c3n2)cn1 + Cc1cc([N+](=O)[O-])ccc1NS(=O)(=O)c1cc(Cl)ccc1Cl [FH535] (first compound 1 µM, partner dose 1 µM)
- cell count (WM115): 105%
- cell count (WM1716): 99.7%
- cell count (WM1745): 86.5%
- cell count (WM3526): 96.1%
- cell count (WM3619): 107%
- cell count (WM451Lu): 75.7%

Compound: C=CCn1c(=O)c2cnc(Nc3ccc(N4CCN(C)CC4)cc3)nc2n1-c1cccc(C(C)(C)O)n1 + Cn1cncc1[C@@](N)(c1ccc(Cl)cc1)c1ccc2c(c1)c(-c1cccc(Cl)c1)cc(=O)n2C [tipifarnib] (first compound 0.02 µM, partner dose 0.01 µM)
- cell count (WM115): 63.7%
- cell count (WM1716): 65.7%
- cell count (WM1745): 74.7%
- cell count (WM3526): 76.7%
- cell count (WM3619): 71.8%
- cell count (WM451Lu): 75.4%

Compound: CO[C@@H]1[C@H](N(C)C(=O)c2ccccc2)C[C@H]2O[C@]1(C)n1c3ccccc3c3c4c(c5c6ccccc6n2c5c31)C(=O)NC4 [Midostaurin] + N#Cc1c(O)c2c(-c3ccc(-c4ccccc4O)cc3)csc2[nH]c1=O [A769662] (first compound 0.08 µM, partner dose 2 µM)
- cell count (WM115): 89.3%
- cell count (WM1716): 72.2%
- cell count (WM1745): 88.4%
- cell count (WM3526): 101%
- cell count (WM3619): 105%
- cell count (WM451Lu): 101%

Compound: OCCn1cc(-c2cnc3nnn(Cc4ccc5ncccc5c4)c3n2)cn1 + O=c1cc(-c2cccc3c2Sc2ccccc2S3)oc(N2CCOCC2)c1 [KU55933] (first compound 1 µM, partner dose 1 µM)
- cell count (WM115): 105%
- cell count (WM1716): 104%
- cell count (WM1745): 93%
- cell count (WM3526): 88.4%
- cell count (WM3619): 92.8%
- cell count (WM451Lu): 101%

Compound: NC(=O)Nc1cc(-c2cccc(F)c2)sc1C(=O)N[C@H]1CCCNC1 + O=C(O)C(=O)Nc1sc2c(c1C(=O)O)CCNC2 [TCS401] (first compound 0.02 µM, partner dose 1.66667 µM)
- cell count (WM115): 90.5%
- cell count (WM1716): 95.4%
- cell count (WM1745): 89.1%
- cell count (WM3526): 72.6%
- cell count (WM3619): 46.9%
- cell count (WM451Lu): 77.4%

Compound: C=CCn1c(=O)c2cnc(Nc3ccc(N4CCN(C)CC4)cc3)nc2n1-c1cccc(C(C)(C)O)n1 + CC(C)(C)c1cnc(CSc2cnc(NC(=O)C3CCNCC3)s2)o1 [SNS-032] (first compound 0.02 µM, partner dose 0.01 µM)
- cell count (WM115): 87.9%
- cell count (WM1716): 87.6%
- cell count (WM1745): 75.9%
- cell count (WM3526): 95.2%
- cell count (WM3619): 76.4%
- cell count (WM451Lu): 105%

Compound: C[C@]1(c2nc3c(C(N)=O)cccc3[nH]2)CCCN1 [Veliparib] + Cc1cc(N2CCOCC2)cc2[nH]c(-c3c(NC[C@@H](O)c4cccc(Cl)c4)cc[nH]c3=O)nc12 [BMS536924] (first compound 1.4 µM, partner dose 0.2 µM)
- cell count (WM115): 81.4%
- cell count (WM1716): 97.2%
- cell count (WM1745): 86.3%
- cell count (WM3526): 91.1%
- cell count (WM3619): 72.8%
- cell count (WM451Lu): 92.7%

Compound: Cc1nc(Nc2ncc(C(=O)Nc3c(C)cccc3Cl)s2)cc(N2CCN(CCO)CC2)n1 [dasatanib] + COc1cc2ncnc(Nc3ccc(Oc4ccccc4)cc3)c2cc1OC [SrcI1] (first compound 0.004 µM, partner dose 2 µM)
- cell count (WM115): 74.9%
- cell count (WM1716): 57.9%
- cell count (WM1745): 69%
- cell count (WM3526): 106%
- cell count (WM3619): 94.7%
- cell count (WM451Lu): 85.4%

Compound: CN(C)S(=O)(=O)c1ccc2c(c1)/C(=C/c1cc3c([nH]1)CCCC3)C(=O)N2 + CCN(CC)CCCCNc1ncc2cc(-c3cc(OC)cc(OC)c3)c(NC(=O)NC(C)(C)C)nc2n1 [PD173074] (first compound 0.4 µM, partner dose 0.1 µM)
- cell count (WM115): 75.1%
- cell count (WM1716): 114%
- cell count (WM1745): 90.3%
- cell count (WM3526): 111%
- cell count (WM3619): 126%
- cell count (WM451Lu): 71.2%

Compound: C[C@]1(c2nc3c(C(N)=O)cccc3[nH]2)CCCN1 [Veliparib] + O=C1NC(=O)/C(=C/c2ccc(-c3ccc(F)cc3O)o2)S1 [AS252424] (first compound 1.4 µM, partner dose 1 µM)
- cell count (WM115): 84.2%
- cell count (WM1716): 87%
- cell count (WM1745): 90.6%
- cell count (WM3526): 93%
- cell count (WM3619): 93.3%
- cell count (WM451Lu): 93.6%

Compound: C[C@]1(c2nc3c(C(N)=O)cccc3[nH]2)CCCN1 [Veliparib] + CN(NC(=O)CC(=O)NN(C)C(=S)c1ccccc1)C(=S)c1ccccc1 [STA4783] (first compound 1.4 µM, partner dose 0.006 µM)
- cell count (WM115): 74.2%
- cell count (WM1716): 79.7%
- cell count (WM1745): 33.2%
- cell count (WM3526): 82.6%
- cell count (WM3619): 36.7%
- cell count (WM451Lu): 89.3%
